Common to all, as to assay: co-IP; GFP-PI3KAP/XB130 co-transfected with full-length or deletion mutants of FLAG-tagged PI3KAP/XB130 into HEK293T cells; lysates immunoprecipitated with anti-FLAG M2 agarose, immunoblotting
Assay [1] deals with T1, FLAG-tagged PI3KAP/XB130 deletion mutant, amino acid residues 122-843 (mouse) (UniProt Q5DTU0).
T1 sequence: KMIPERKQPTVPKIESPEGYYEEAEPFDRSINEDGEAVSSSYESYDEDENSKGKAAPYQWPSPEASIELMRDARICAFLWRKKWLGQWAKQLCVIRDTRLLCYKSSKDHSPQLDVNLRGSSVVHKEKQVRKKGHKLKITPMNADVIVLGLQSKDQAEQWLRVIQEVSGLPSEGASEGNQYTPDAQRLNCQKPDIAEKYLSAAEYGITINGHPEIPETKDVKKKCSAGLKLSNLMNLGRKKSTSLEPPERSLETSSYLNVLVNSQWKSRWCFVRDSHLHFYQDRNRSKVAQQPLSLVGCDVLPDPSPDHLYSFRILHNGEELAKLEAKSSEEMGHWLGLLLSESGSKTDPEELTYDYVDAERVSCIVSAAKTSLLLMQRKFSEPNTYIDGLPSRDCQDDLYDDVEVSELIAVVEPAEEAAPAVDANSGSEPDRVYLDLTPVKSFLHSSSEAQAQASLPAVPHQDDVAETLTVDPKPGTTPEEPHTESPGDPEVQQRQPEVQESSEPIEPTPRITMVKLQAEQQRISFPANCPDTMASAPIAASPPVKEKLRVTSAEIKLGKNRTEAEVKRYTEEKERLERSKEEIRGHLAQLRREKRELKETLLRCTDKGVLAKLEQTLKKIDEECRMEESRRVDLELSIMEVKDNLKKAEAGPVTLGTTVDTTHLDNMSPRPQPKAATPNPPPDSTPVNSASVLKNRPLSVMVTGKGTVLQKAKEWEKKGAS

The target of assay [2] is T2, FLAG-tagged PI3KAP/XB130 deletion mutant, amino acid residues 41-843 (mouse) (UniProt Q5DTU0).
T2 sequence: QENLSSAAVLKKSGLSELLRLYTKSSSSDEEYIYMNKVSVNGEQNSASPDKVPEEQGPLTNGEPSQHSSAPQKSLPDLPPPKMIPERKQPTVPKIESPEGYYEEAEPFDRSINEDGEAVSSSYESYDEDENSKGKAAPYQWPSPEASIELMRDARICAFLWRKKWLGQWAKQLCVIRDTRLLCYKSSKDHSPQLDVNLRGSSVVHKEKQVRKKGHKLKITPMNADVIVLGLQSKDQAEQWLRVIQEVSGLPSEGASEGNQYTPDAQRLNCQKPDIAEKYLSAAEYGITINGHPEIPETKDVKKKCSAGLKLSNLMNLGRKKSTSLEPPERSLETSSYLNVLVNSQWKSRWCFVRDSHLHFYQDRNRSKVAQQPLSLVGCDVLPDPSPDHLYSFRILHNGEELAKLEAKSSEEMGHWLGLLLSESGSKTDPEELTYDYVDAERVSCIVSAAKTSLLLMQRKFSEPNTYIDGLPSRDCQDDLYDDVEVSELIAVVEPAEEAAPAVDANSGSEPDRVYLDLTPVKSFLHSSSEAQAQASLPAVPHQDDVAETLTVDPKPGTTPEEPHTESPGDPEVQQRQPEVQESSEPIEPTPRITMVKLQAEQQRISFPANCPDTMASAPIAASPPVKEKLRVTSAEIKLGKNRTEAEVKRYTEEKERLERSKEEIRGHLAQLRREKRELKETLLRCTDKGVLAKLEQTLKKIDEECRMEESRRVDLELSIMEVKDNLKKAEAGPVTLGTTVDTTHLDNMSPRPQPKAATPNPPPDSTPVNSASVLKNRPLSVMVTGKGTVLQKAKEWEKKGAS

Assay [3] deals with T3, FLAG-tagged PI3KAP/XB130 deletion mutant, amino acid residues 1-185 (mouse) (UniProt Q5DTU0).
T3 sequence: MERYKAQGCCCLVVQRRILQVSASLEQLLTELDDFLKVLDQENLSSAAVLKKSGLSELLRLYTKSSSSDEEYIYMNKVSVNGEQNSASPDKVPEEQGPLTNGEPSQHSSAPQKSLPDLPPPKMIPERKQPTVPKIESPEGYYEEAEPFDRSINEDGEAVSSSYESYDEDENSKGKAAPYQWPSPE

Assay [4] deals with T4, FLAG-tagged PI3KAP/XB130 deletion mutant, amino acid residues 1-510 (mouse) (UniProt Q5DTU0).
T4 sequence: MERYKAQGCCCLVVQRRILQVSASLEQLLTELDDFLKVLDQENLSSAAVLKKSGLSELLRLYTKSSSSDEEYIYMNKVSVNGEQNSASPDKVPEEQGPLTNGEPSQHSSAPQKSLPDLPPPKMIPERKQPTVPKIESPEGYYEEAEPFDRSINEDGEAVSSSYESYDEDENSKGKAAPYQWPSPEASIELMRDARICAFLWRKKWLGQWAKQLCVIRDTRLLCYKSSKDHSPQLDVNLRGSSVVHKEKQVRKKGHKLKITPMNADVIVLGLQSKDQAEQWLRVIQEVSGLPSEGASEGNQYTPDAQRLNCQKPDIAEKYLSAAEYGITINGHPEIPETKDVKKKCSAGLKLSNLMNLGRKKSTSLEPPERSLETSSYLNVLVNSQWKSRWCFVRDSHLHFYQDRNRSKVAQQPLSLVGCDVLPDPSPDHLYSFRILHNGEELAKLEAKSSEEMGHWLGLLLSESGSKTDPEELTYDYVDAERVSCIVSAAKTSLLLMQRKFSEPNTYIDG

The record followed here is PMC4939424.

These are yes or no findings as the source states them, for the method shown. In cells and extracts the contact can be indirect. Some entries that bind do so weakly or less than the wild type. Sequences can lack the tags named with a protein.

B1: GFP-fused PI3KAP/XB130 (protein, UniProt Q5DTU0-2 1-843)
chain: MERYKAQGCCCLVVQRRILQVSASLEQLLTELDDFLKVLDQENLSSAAVLKKSGLSELLRLYTKSSSSDEEYIYMNKVSVNGEQNSASPDKVPEEQGPLTNGEPSQHSSAPQKSLPDLPPPKMIPERKQPTVPKIESPEGYYEEAEPFDRSINEDGEAVSSSYESYDEDENSKGKAAPYQWPSPEASIELMRDARICAFLWRKKWLGQWAKQLCVIRDTRLLCYKSSKDHSPQLDVNLRGSSVVHKEKQVRKKGHKLKITPMNADVIVLGLQSKDQAEQWLRVIQEVSGLPSEGASEGNQYTPDAQRLNCQKPDIAEKYLSAAEYGITINGHPEIPETKDVKKKCSAGLKLSNLMNLGRKKSTSLEPPERSLETSSYLNVLVNSQWKSRWCFVRDSHLHFYQDRNRSKVAQQPLSLVGCDVLPDPSPDHLYSFRILHNGEELAKLEAKSSEEMGHWLGLLLSESGSKTDPEELTYDYVDAERVSCIVSAAKTSLLLMQRKFSEPNTYIDGLPSRDCQDDLYDDVEVSELIAVVEPAEEAAPAVDANSGSEPDRVYLDLTPVKSFLHSSSEAQAQASLPAVPHQDDVAETLTVDPKPGTTPEEPHTESPGDPEVQQRQPEVQESSEPIEPTPRITMVKLQAEQQRISFPANCPDTMASAPIAASPPVKEKLRVTSAEIKLGKNRTEAEVKRYTEEKERLERSKEEIRGHLAQLRREKRELKETLLRCTDKGVLAKLEQTLKKIDEECRMEESRRVDLELSIMEVKDNLKKAEAGPVTLGTTVDTTHLDNMSPRPQPKAATPNPPPDSTPVNSASVLKNRPLSVMVTGKGTVLQKAKEWEKKGAS
In the case of B1, the binding entry was “no binding” in assay [1], “no binding” in assay [2], “binds” in assay [3] and “binds” in assay [4].
